Reference: the supplement of paper PMC10126150
Values marked as one replicate rest on one cluster of the flow cell; about a third of the high ones do not repeat.

Tested on: ATP
Assay: switch fluorescence ratio, 500 uM ATP over buffer (Cy3 cluster intensity, sum of 5 cycles each) (fold (ratio)); higher = stronger signal-on switching upon ATP binding; sequences stand for … in TCGTCGGCAGCGTCAGATGTGTATAAGAGACAGTTTTTTTTTTTTTTTTTTTTTTTTT…TC
Conditions: aptamer strand: ATP DNA aptamer (quencher-CACCTGGGGGAGTATTGCGGAGGAAGG + anchor), 100 nM annealed; ATP concentration: 500 uM; one replicate
Method in brief: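 Switching-strand clusters labelled with Cy3 on a modified Illumina MiSeq flow-cell were annealed to 100 nM quencher-labelled ATP aptamer, imaged in selection buffer, and re-imaged after 15 min with 500 uM ATP at 22 °C. This was done over five cycles with NaOH stripping and re-annealing in between. The fluorescence ratio is summed target-cycle over summed buffer-cycle Cy3 intensity per cluster, averaged per switch-domain sequence, excluding clusters outside 100-1000 RFU.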
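Also: ATP exposure 15 min at 22 °C before imaging.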

Sequence | switch fluorescence ratio
CTGTGCTATC | 2.06
CATAGAGCGT | 0.942
ATCACGGCG | 1
AGTAGCTCGA | 1.03
GTCTGTGTCG | 0.972
TACGTTCGGA | 1.03
CGTTGAATGT | 1
GGCGCAGAGG | 1.07
TTGCTCCATC | 1
AACTAGGAAG | 0.96
GATTTCCAAC | 1.03
GAGGAAAATG | 1.02
AAGATGTTAT | 1
AGAGACCGTG | 1.05
TTGCGTTGGG | 1.02
GCCAGAGTTG | 0.982
GTTACTTCA | 0.986
TCGTTGGAAT | 1.04
TATGGCTGCA | 1.02
AGAGGTGCTG | 1.12
AACAAGTGCA | 1.05
TATCTCGTAA | 1.09
ATCAAGAAGT | 1.01
AAGGGTGGTG | 1.04
AATTGCCTTT | 0.979
GGTTCCGTGT | 0.99

Sequence | switch fluorescence ratio
GAGGGGTGGC | 1.01
TTGCATGTGG | 0.984
ACAATTATGG | 1
CCGTGGGGGA | 1.07
AACTGAACC | 1.24
TGAGGTAACA | 0.975
AGTCCTTCGA | 1.03
AAGGTCCTGG | 0.967
GGGCTGTGGT | 0.996
CCGTTGTGTC | 1.21
ACGGACCTT | 1.41
CGAGGGGCCG | 0.932
ATGGTTCTAG | 0.982
ATTCCGAATC | 1.53
GCGGAACACT | 1.08
AGATTTGCGC | 1.01
GCTATTATGG | 0.961
TACGGGTCTT | 1.01
GTGTGTCGTA | 0.956
CATTAGGTG | 1.26
GCCTTCCATC | 2.14
CTAAGCAGAA | 1.12
CTGCGGAAAA | 0.995
GTCTCCTTGC | 1.22
GATGGACTCA | 1.16
CGAAGTCTGG | 1.03

Sequence | switch fluorescence ratio
TCTACTAGCT | 1.02
GTTAACCTG | 1.07
TAAAGTTGTA | 1.01
ACGCTAAATT | 1.18
GGGCACCCTG | 1.03
TGCTAACATT | 1
AGAAATGAAC | 0.974
ATCCGAAGTA | 1.16
AATACTTGGC | 0.906
GAAAAATCCT | 3.67
GGGACAGGTC | 0.982
AAACTGCTTC | 1.05
ATGGCTTTAT | 1.02
TGGAATATG | 1.16
GCAGCGTGTG | 1
GCCAAATGGA | 1.01
AAATAATTAA | 1.04
GAGCACATTC | 2.17
GGGAAATCAC | 1.21
TTGACGAG | 1.02
GTACAG | 1.02
GCTGGAAGGT | 0.995
GCTAGGTGCG | 1.04
GAATCCAAGC | 0.96
TTATTCCTCT | 1.01
CAGGGAAATT | 0.978

Sequence | switch fluorescence ratio
ACGGATGCA | 1.05
GACGGCCCCC | 1.04
CCAACCAGAG | 1.09
CGGAATGCCA | 0.964
TGAATATGGA | 0.994
TTAATATGAA | 1.03
CAATGAAGCT | 0.982
CACGTGCCGT | 1.06
TCCAGGCATG | 0.983
ACGATTGTCA | 1.03
GGTCCATCAG | 1.02
CCACACTGGA | 1.04
AGACTTAGGT | 1.02
CCCTCTGTAC | 2.99
CAAGCAGGAG | 1.19
CTCGGGTTCT | 0.986
TGGTGGTAAT | 0.933
TTATTGTCAT | 1.05
TTGGTGAACC | 1.01
ACCTGAGGTG | 1.51
TTTTCACGGA | 0.999
AGGATATCGC | 1.03
ACTAGGTGGA | 1.04
GAGTGTAACA | 0.966
TGTTTAGAAT | 0.971
AGTAGGGAA | 1.02

Sequence | switch fluorescence ratio
GCGCCGGGTT | 1.02
ACTGATGCTG | 1.03
GCTTTCAT | 1.04
AGAAATACTG | 1.23
CGTGGACGGT | 0.991
TTAGTAGCAG | 1
CAGCTGGGTG | 1.29
AGGTCGCCGT | 1.05
TGCGTCGACT | 0.968
TAGGCAGCTT | 1.08
ACCTAAAGAT | 1.06
GCCGTAATCC | 1.49
CCGTGTAGTG | 1.01
GTTAATGCCT | 1.01
TCAACGGGGA | 1.03
ATTGCAACAG | 1.06
TATTTCTCCT | 1.01
GACCTTGGAG | 0.99
GAGCGTAATG | 1.03
TGAACTATTG | 1.03
TCGTGATGGG | 1.06
CAAAGCCAAT | 3.22
AGACTAAAT | 0.997
TAGAGATGC | 1.06
GCAGTTGGCT | 0.924
CGGCGATCAC | 2.4

Sequence | switch fluorescence ratio
TTTTAATTGC | 1.02
ATGCGGAGGC | 0.983
CAGGGCCGCA | 1.08
GAATAAGTAA | 1.07
GAATGGCCGC | 1.01
AAAATCTCT | 0.99
GTCGCGTGGG | 1.02
GTTAATCGGA | 0.993
ACCCCCTTTG | 1.32
AATGCAAGAG | 1.55
GGCCTAAGAC | 0.996
TACAGAT | 1.03
CGCTAGAATG | 1.06
GTTGAGTTAG | 0.998
CCAAAGGCTG | 0.936
GTAACAACAA | 0.974
GCCTCCAAAT | 1.72
GACCACGGTG | 1.52
AACAATCTTC | 0.991
AACGCTTCTT | 1.01
GAATGCCTT | 1.01
ATTGTACTGC | 0.996
AATGGGGAGC | 0.954
AAGTATGTAC | 1.02
CTAATTGAAG | 0.946
AAGGCCGCTA | 1.02

Sequence | switch fluorescence ratio
CTATTTGACC | 1.04
GTCGTATCAT | 0.962
GTCGACCCGG | 1.01
CGTTGATGGA | 0.983
TTGGTCATGT | 0.988
GGATAGCACG | 1.01
CATAACCTGG | 1.01
CGGCAACGTT | 0.955
GCGTCATCCA | 0.981
GATTAATGCT | 1.01
AGCGATAACC | 1.45
AGGATTGTAA | 0.952
GTGCAGCGAT | 1.6
TAGAGTTAAA | 1.02
AGCCGGAAAG | 1.03
CATTGGATAC | 1.26
AATAGCACTG | 1.1
ACTCTGATCC | 1.06
AATGTAAGGG | 1
TCAACGCCAA | 2.8
AGTCGATCGC | 1.05
GTGATTAGCA | 0.962
CTTCTAGATG | 1
CTGAGTGAGC | 1.05
TAGGTATGCT | 0.962
GGCTCAGTGC | 0.987

Sequence | switch fluorescence ratio
AAGGAGGTC | 1.03
CCCGGTGTGC | 1.39
GAGTTCAGGC | 0.971
AGGGGCGGG | 0.915
TGTGAGAGGA | 0.962
TGTTGCTATA | 1
CCCAGCATGA | 2.52
CAAAGAGCAG | 0.976
GACATAATTG | 1.01
TCAGTTTAGG | 1
GAATACATGG | 1.02
ACATTGAAA | 1.03
TTCATATTA | 1.02
CGAGCAGGGG | 1.13
CCAGTGAGGT | 0.974
CGAAGCGCTC | 2.34
CTAATGTCAA | 1.09
TCGCAACGTT | 1.12
AGTCACGGGG | 1.02
